From PubChem BioAssay AID504706 (National Center for Advancing Translational Sciences (NCATS), 2011)
Hit rate of the full screen: of about 320,000 compounds, about 200 (0.062%) were called active. The shares of active, inactive and inconclusive entries below differ from those in the screen. Calls follow the shape of the dose curve; as a rule, active = well fitted activation curve with a large enough effect; inconclusive = small, poorly fitted or top-dose-only effect; inactive = no such curve, though single readings can be large or run the other way. No potency is given beside an inconclusive call; the fits are too rough.

Assay: qHTS assay for re-activators of p53 using a Luc reporter; also: nearly all actives have a fitted effect of over 45% in size
Settings: H1299 p53-A138V BP100-luciferase reporter, luminescence, 24 h; series mostly up to 92.2 µM
How it was run: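 H1299 (p53-null), stable ts p53-A138V + BP100-Luc; 1000 cells/well, Opti-MEM/10% FBS; cpd 4 pt, 1:5; 24 h, 37 deg C, 5% CO2; detection reagent 10 min RT; luminescence.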
Potency is read from the fitted curve at half-maximal effect; tags tell the direction and shape of the fitted curve.

Q: For `CCC[C@@H](CN[C@@H](CNC)[C@H](C)CC)NCC1CCC(C(C)(C)C)CC1` (some centres not stated), which Potency is on record?
A: inconclusive [activator, single point]

Q: With `CCCCCC(=O)Nc1ccc2ccccc2c1` as the compound, how does the Potency read?
A: inconclusive [activator, full curve, poor fit]

Q: For `O=C(O)c1ccc(NC(=O)c2ccccc2NC(=O)c2ccccc2Br)cc1`, which Potency is on record?
A: inactive

Q: Which Potency does the source give for `Cc1cc(/C=C(\C#N)C(=O)NCC2CCCO2)c(C)n1-c1ccc(Cl)cc1` (configuration not stated) here?
A: inconclusive [activator, single point]

Q: With `CCN(CC)CCNC(=O)c1ccc(N2CCCCC2)c(NS(=O)(=O)c2ccc(C)cc2)c1` as the compound, how does the Potency read?
A: inconclusive [activator, full curve, poor fit]

Q: For `CC1CCCN(C(=O)c2cc3c(=O)n4ccccc4nc3s2)C1` (configuration not stated), which Potency is on record?
A: inconclusive [activator, partial curve, poor fit]

Q: For `Cc1ccc(CCSc2ccc(C(C)C)cc2)cn1`, which Potency is on record?
A: inconclusive [activator, partial curve, poor fit]

Q: With `c1ccc(CNc2nc(-c3ccccc3)nc3ccccc23)cc1` as the compound, how does the Potency read?
A: inconclusive [activator, single point]

Q: For `Cc1ccc(C(=O)Nc2nc(C(C)(C)C)cs2)s1`, which Potency is on record?
A: inconclusive [activator, partial curve, poor fit]

Q: Which Potency does the source give for `CC(=O)Nc1ccc(NC2=CC(=O)c3ccccc3C2=O)cc1` here?
A: inactive

Q: For `COc1cc(C(=O)O/N=C2/C=CC(=O)C(C)=C2C)cc(OC)c1OC`, which Potency is on record?
A: inactive

Q: For `O=C(Nc1ccc(Cl)cc1)N1CC=CCC1`, which Potency is on record?
A: inconclusive [activator, partial curve, poor fit]

Q: With `O=C(Nc1cccnc1Cl)c1ccc2c(Cl)c3c(nc2c1)CCC3` as the compound, how does the Potency read?
A: inconclusive [activator, partial curve, poor fit]

Q: Which Potency does the source give for `COc1ccc(NC2CC(=O)N(C(C)C)C2=O)cc1` (configuration not stated) here?
A: inactive

Q: With `Cn1c(/C=C/c2cccc(Br)c2)nc2ccccc2c1=O` as the compound, how does the Potency read?
A: inactive

Q: With `Nc1nnnn1/N=C/c1ccc(N2CCCCC2)c([N+](=O)[O-])c1` as the compound, how does the Potency read?
A: inconclusive [activator, full curve, poor fit]

Q: For `O=C(CN1C(=O)S/C(=C\c2ccccc2F)C1=O)Nc1ccccc1O`, which Potency is on record?
A: inconclusive [activator, single point]

Q: Which Potency does the source give for `O=C1NC2(CCC3(CC2)OCCO3)NN1c1ccc(Cl)cc1` here?
A: inconclusive [activator, single point]

Q: Which Potency does the source give for `CCC(=O)Nc1ccc(-c2ccc(N3CCC(C)CC3)nn2)cc1` here?
A: inconclusive [activator, partial curve, poor fit]

Q: For `CSC1=NCCN1C(=O)C12CC3CC(CC(C3)C1)C2`, which Potency is on record?
A: inconclusive [activator, full curve, poor fit]

Q: Which Potency does the source give for `CCCC(=O)NC(=S)Nc1ccccc1N1CCOCC1` here?
A: inactive

Q: For `CN(C)/C=C(\C#N)C(=O)N/N=C/c1ccc(F)cc1`, which Potency is on record?
A: inactive

Q: For `CCCOP(=O)(OCCC)c1c([N+](=O)[O-])cc(C(F)(F)F)cc1[N+](=O)[O-]`, which Potency is on record?
A: inconclusive [activator, partial curve, poor fit]

Q: With `COc1cccc(/C=C/C(=O)Nc2ccc3c(c2)OCCO3)c1` as the compound, how does the Potency read?
A: inconclusive [activator, partial curve, poor fit]

Q: For `O=C(O)c1cc(N2N=C(C(F)(F)F)/C(=C/C=C/c3ccco3)C2=O)ccc1Cl`, which Potency is on record?
A: inactive

Q: For `Cc1cccc(N2CCCC2=Nc2ccc(Br)cc2C#N)c1`, which Potency is on record?
A: inconclusive [activator, single point]

Q: With `Nc1cc(Cl)nc(N/N=C/c2c(O)ccc3ccccc23)n1` as the compound, how does the Potency read?
A: inconclusive [activator, partial curve, poor fit]

Q: Which Potency does the source give for `CC1CC(=O)c2cnc(Nc3ccccc3)nc2C1` (configuration not stated) here?
A: inconclusive [activator, partial curve, poor fit]

Q: For `c1ccc(CCNc2nc(-c3ccccn3)nc3ccccc23)cc1`, which Potency is on record?
A: inconclusive [activator, single point]

Q: For `CCOc1ccc(C(=O)NCC(=O)OCc2csc(-c3ccccc3)n2)cc1`, which Potency is on record?
A: inconclusive [activator, full curve, poor fit]

Q: With `CCCCN1CC(COc2ccccc2)OC1=O` (configuration not stated) as the compound, how does the Potency read?
A: inconclusive [activator, single point]

Q: Which Potency does the source give for `COC(=O)c1cc(C(=O)Nn2cnnc2)cc([N+](=O)[O-])c1` here?
A: inconclusive [activator, single point]

Q: Which Potency does the source give for `COc1ccc(N2C(=O)C(Cl)=C(Nc3ccccc3O)C2=O)cc1` here?
A: inconclusive [activator, partial curve, poor fit]

Q: Which Potency does the source give for `Cc1cc(C)c(NC(=O)Nc2ccc3c(c2)OCO3)c(C)c1` here?
A: inactive

Q: Which Potency does the source give for `CCOC(=O)C1=C(C)Nc2ccccc2N/C1=N\S(=O)(=O)c1cc(C(=O)O)ccc1Cl` here?
A: inconclusive [activator, single point]

Q: With `O=C(Nc1ccc(Cl)c(Cl)c1)Nc1nccs1` as the compound, how does the Potency read?
A: inconclusive [activator, partial curve, poor fit]

Q: Which Potency does the source give for `Cc1c(Br)c(-c2n[nH]c(=S)n2Cc2ccco2)nn1C` here?
A: inactive

Q: With `COc1cc(NC(=O)C2=C(N3CCOCC3)/C(=C\c3ccc(N(C)C)cc3)CCC2)cc(OC)c1OC` as the compound, how does the Potency read?
A: inconclusive [activator, partial curve, poor fit]

Q: Which Potency does the source give for `O=C(NCCc1c[nH]c2ccccc12)c1ccc(F)cc1F` here?
A: inconclusive [activator, full curve, poor fit]

Q: For `CC(=O)c1ccc(S(=O)(=O)N(C)CC(=O)NCc2ccco2)cc1`, which Potency is on record?
A: inconclusive [activator, partial curve, poor fit]

Q: Which Potency does the source give for `Cn1c(=O)c2c(nc(N3CCC(C(N)=O)CC3)n2CCSc2nc3ccccc3s2)n(C)c1=O` here?
A: inconclusive [activator, single point]

Q: Which Potency does the source give for `COC(=O)c1c(C)[nH]c(C(=O)OCc2ccc(F)cc2)c1C` here?
A: inconclusive [activator, partial curve, poor fit]

Q: For `CCCOc1ccc(-c2csc(N)n2)cc1[N+](=O)[O-]`, which Potency is on record?
A: inconclusive [activator, partial curve, poor fit]

Q: For `Fc1ccccc1C(c1nnnn1Cc1ccc2c(c1)OCO2)N1CCN(Cc2ccco2)CC1` (configuration not stated), which Potency is on record?
A: inconclusive [activator, single point]

Q: With `O=C(Nc1ccc2c(c1)CCCN2C(=O)c1ccco1)c1cc([N+](=O)[O-])ccc1Cl` as the compound, how does the Potency read?
A: inactive

Q: For `COCc1cc(C)nc(N2CCCCC2)c1C#N`, which Potency is on record?
A: inactive

Q: For `C/C(N)=C(/C#N)C(=O)CSc1nnc(Nc2cccc(C)c2C)s1`, which Potency is on record?
A: inconclusive [activator, single point]

Q: For `CSCc1nc2scc(-c3ccccc3)c2c(=O)[nH]1`, which Potency is on record?
A: inactive

Q: With `CCOc1c(Br)cc(CNc2ccc3c(c2)OCCO3)cc1OC` as the compound, how does the Potency read?
A: inconclusive [activator, partial curve, poor fit]

Q: Which Potency does the source give for `O=C(C1CCCO1)N1CCN(c2c3c(nc4cc(-c5ccc(F)cc5)nn24)CCC3)CC1` (configuration not stated) here?
A: inconclusive [activator, single point]

Q: Which Potency does the source give for `CCN(CC)c1ccc(C(=S)N2CCN(c3ccccc3)CC2)cc1` here?
A: inactive

Q: Which Potency does the source give for `Cc1nc(C)c(C(=O)N/N=C/c2cc(Br)ccc2O)s1` here?
A: inconclusive [activator, partial curve, poor fit]

Q: With `Cn1ccc(C(=O)NC(=S)Nc2ccc([N+](=O)[O-])cc2O)n1` as the compound, how does the Potency read?
A: inconclusive [activator, partial curve, poor fit]

Q: Which Potency does the source give for `CC(C)c1ccc(/C=N/NC(=O)c2ccccn2)cc1` here?
A: inactive

Q: For `COC(=O)CN1CCN(C(=O)c2ccco2)CC1`, which Potency is on record?
A: inconclusive [activator, partial curve, poor fit]

Q: With `COc1cccc(NC(=O)CCc2c(C)nn(-c3ccc(N4CCOCC4)nn3)c2C)c1` as the compound, how does the Potency read?
A: inconclusive [activator, single point]

Q: For `Cn1c(=O)c2c(ncn2CC(=O)N/N=C/C(Br)=C/c2ccccc2)n(C)c1=O`, which Potency is on record?
A: inconclusive [activator, partial curve, poor fit]

Q: With `Cc1noc(NS(=O)(=O)c2ccc(N/C=C\C(=O)c3ccc4c(c3)OCO4)cc2)c1C` as the compound, how does the Potency read?
A: inactive

Q: With `CCOC(=O)c1sc(Nc2nc3cc4c(cc3s2)OCO4)cc1C` as the compound, how does the Potency read?
A: inconclusive [activator, full curve, poor fit]

Q: With `O=C(NCCCn1ccnc1)c1cc(-c2cccc(O)c2)on1` as the compound, how does the Potency read?
A: inconclusive [activator, partial curve, poor fit]

Q: Which Potency does the source give for `Cc1cccc(-n2ncc3c(NCc4ccco4)ncnc32)c1` here?
A: inconclusive [activator, partial curve, poor fit]

Q: Which Potency does the source give for `Cc1ccccc1C(=O)Nc1ccnn1C1CCN(Cc2cnn(C(C)C)c2)CC1` here?
A: inconclusive [activator, single point]

Q: For `O=C1NC(=Nc2ccccc2)S/C1=C\c1cccnc1`, which Potency is on record?
A: inactive

Q: Which Potency does the source give for `c1coc(CNc2c3c(nc4ccccc24)CCC3)c1` here?
A: inconclusive [activator, single point]

Q: With `O=C(Nc1ccc(NC(=O)c2ccccn2)cc1)C(=O)Nc1ccc2c(c1)OCCO2` as the compound, how does the Potency read?
A: inactive

Q: With `CCCc1ccc(C(=O)CCC(=O)O)cc1` as the compound, how does the Potency read?
A: inconclusive [activator, single point]

Q: With `CCCOC1CCCN(C(=O)CCc2nnc(-c3ccc4c(c3)OCO4)o2)C1` (configuration not stated) as the compound, how does the Potency read?
A: inconclusive [activator, partial curve, poor fit]
